This test addresses Murine ALCAM (mouse) (UniProt Q61490).
Chain of UniProt Q61490 (Q61490 28-527): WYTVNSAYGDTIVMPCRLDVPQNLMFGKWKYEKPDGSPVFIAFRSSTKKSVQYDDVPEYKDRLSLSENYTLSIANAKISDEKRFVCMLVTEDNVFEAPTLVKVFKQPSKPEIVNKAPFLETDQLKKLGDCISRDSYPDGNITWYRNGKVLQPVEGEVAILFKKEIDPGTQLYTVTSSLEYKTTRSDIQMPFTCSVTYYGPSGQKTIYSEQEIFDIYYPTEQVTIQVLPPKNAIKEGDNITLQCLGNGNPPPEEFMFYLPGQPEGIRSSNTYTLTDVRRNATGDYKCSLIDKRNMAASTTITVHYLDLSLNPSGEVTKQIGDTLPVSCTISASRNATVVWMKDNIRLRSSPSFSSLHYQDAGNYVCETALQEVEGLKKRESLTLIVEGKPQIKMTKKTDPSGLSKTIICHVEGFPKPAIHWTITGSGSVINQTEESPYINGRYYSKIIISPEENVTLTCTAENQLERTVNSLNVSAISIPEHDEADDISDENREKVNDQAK

B1: IF8-Fc (Fc fusion)
VH: [no letters for about 100 residues]GYVAFDYWGQGTLVTVSS
VL: SSELTQDPAVSVALGQTVRITCQGDSLRSYYASWYQQKPGQAPVLVIYGKNNRPSGIPDRFSGSSSGNTASLTITGAQAEDEADYYCNSSPPFSAEVVFGGGTKLTVL
B1 yielded an IC50 of DC transmigration across LEC monolayers (DC TM; blocks ALCAM–ALCAM between DCs and LECs) of 0.44 nM.

B2: db V2D7 (protein)
VH: [no letters for about 100 residues]GYVAFDYWGQGTLVTVSS
VL: SSVLTQPPSVSVAPGQTARITCQGDSLRSGYASWYQQKPGQAPVLVVYGKNNRPSGIPERFSGSSSGNTATLTISRVEAGDEADYYCNSSPPFSAEVVFGGGTKLTVL
For B2, the IC50 of DC transmigration across LEC monolayers (DC TM; blocks ALCAM–ALCAM between DCs and LECs) came to 0.86 nM.

Values taken from PMC10385607.
